In PMC4336329 (PLoS ONE, 2015):
The whole screen tested about 310,000 compounds, of which about 2,200 (0.71%) showed an effect of 50% or more. The effect is printed as a negative number. Some of the results follow.

What follows are compounds tested against human ether-à-go-go-related gene (hERG) potassium channel (human, UniProt Q12809) (assay: primary screen, population patch clamp on CHO cells stably expressing hERG).
Chain of human ether-à-go-go-related gene (hERG) potassium channel (Q12809 whole entry, looked up): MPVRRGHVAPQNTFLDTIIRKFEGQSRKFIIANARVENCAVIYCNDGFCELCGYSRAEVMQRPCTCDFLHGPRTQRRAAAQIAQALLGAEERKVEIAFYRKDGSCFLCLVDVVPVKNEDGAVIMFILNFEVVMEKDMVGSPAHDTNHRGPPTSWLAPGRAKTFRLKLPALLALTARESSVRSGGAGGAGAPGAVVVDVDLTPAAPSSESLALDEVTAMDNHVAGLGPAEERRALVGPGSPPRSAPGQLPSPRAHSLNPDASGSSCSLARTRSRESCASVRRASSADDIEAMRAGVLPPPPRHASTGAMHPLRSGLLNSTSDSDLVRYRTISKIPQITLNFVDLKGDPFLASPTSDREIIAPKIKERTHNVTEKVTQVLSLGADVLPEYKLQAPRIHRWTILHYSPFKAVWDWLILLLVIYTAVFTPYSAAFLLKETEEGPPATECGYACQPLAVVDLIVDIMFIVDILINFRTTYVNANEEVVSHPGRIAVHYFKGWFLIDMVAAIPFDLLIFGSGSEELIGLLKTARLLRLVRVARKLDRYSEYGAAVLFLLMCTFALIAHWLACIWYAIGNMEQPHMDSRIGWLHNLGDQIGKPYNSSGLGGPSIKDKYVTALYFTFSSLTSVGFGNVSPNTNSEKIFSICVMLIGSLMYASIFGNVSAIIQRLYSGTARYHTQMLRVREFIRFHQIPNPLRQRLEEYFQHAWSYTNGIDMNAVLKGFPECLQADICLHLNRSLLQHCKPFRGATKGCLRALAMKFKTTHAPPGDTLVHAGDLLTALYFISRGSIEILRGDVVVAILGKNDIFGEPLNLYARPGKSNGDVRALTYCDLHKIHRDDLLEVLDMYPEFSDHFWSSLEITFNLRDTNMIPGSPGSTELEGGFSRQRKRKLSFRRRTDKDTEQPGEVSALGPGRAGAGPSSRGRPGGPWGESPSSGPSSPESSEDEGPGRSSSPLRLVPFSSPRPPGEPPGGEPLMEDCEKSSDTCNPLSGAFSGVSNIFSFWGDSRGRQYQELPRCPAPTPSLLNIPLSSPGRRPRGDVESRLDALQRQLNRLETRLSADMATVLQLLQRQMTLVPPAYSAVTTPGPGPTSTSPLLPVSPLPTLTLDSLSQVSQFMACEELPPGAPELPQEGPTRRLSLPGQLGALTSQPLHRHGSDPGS

Going from `CCOC(=O)C1CCCN(C(=O)CCNS(=O)(=O)c2ccc(Br)cc2)C1` (centres unmarked) to `COCC(=O)N1CCCC(C(=O)c2ccc(-c3ccccc3)cc2)C1` (centres unmarked), the “hERG current change (%, negative = inhibition) at 1uM” value rises from -4.26% to 0.927%.

First: CCOC(=O)CCc1c(C)c2ccc(OCc3cc([N+](=O)[O-])ccc3OC)cc2oc1=O
Second: CCNC(=S)N(CCc1c(C)[nH]c2ccc(C)cc12)Cc1cc(OC)c(OC)c(OC)c1
The “hERG current change (%, negative = inhibition) at 1uM” value of the first is higher: 9.23% for the first, 6.34% for the second.

Compared with `COc1cc(C(=O)NC2CCCC2)c(Br)c(OC)c1OC`, `COc1ccccc1C(=O)OCC(=O)NC1CCCC1` is lower in “hERG current change (%, negative = inhibition) at 1uM” value: 9.37% for the first, 5.17% for the second.

Going from `Cc1ccccc1NC(=O)C(C)O/N=C/c1cccc([N+](=O)[O-])c1` (centres unmarked) to `Cc1c(NC(=S)N/N=C/C=C/c2ccc([N+](=O)[O-])cc2)c(=O)n(-c2ccccc2)n1C`, the “hERG current change (%, negative = inhibition) at 1uM” value falls from 7.11% to 2.06%.

Going from `CC(=O)Nc1ccc(-c2csc(NC(=O)Cc3cccc(F)c3)n2)cc1` to `CCN(CC)CCNC(=O)c1ccc(NC(=O)c2cccc(-n3cnnn3)c2)cc1`, the “hERG current change (%, negative = inhibition) at 1uM” value rises from 5.22% to 9.62%.

First: COc1ccc(/C=C/C(=O)Nc2cccc(F)c2)cc1S(=O)(=O)N1CCOCC1
Second: COC(=O)c1ccccc1C(=O)N1CCCC(C(=O)c2cc(F)ccc2F)C1 (centres unmarked)
The “hERG current change (%, negative = inhibition) at 1uM” value of the first is lower: -17.1% for the first, 10% for the second.

First: COC(=O)N/N=C(\C)c1ccc(C)c([N+](=O)[O-])c1
Second: Cc1ccc(S(=O)(=O)NC(=O)NC(C)(C)C)cc1
The “hERG current change (%, negative = inhibition) at 1uM” value of the first is higher: 13.5% for the first, -11.6% for the second.

Going from `CC(=O)Nc1ccc(CC#N)cc1` to `CCOc1ccc2nc(NC(=O)c3ccc(C)o3)sc2c1`, the “hERG current change (%, negative = inhibition) at 1uM” value rises from 6.89% to 23.2%.

First: Cc1cc(C)c2cc(CN(Cc3nnnn3C3CCCCC3)CC3CCCO3)c(=O)[nH]c2c1 (centres unmarked)
Second: O=C(CN1C(=O)NC2(CCCCC2)C1=O)NC1CCCc2ccccc21 (centres unmarked)
The “hERG current change (%, negative = inhibition) at 1uM” value of the first is lower: -6.79% for the first, 0.155% for the second.

Going from `Cc1nc2ccccc2c(=O)n1N` to `CCc1c(SCCC(=O)O)nc2ccccc2c1C`, the “hERG current change (%, negative = inhibition) at 1uM” value rises from 5.03% to 16.2%.

First: CCC(=O)N1COC[C@@H]1Cc1ccccc1
Second: CC/C(Cc1ccccc1)=N/NC(=O)c1cccc(Br)c1
The “hERG current change (%, negative = inhibition) at 1uM” value of the first is higher: 22.6% for the first, 17.1% for the second.

Going from `Cc1ccc(N(CC(=O)NCC(O)c2ccccc2)S(=O)(=O)c2ccc(C)cc2)cc1` (centres unmarked) to `NC(N)=NS(=O)(=O)c1ccc(NC(=S)NC(=O)/C=C/c2ccccc2)cc1`, the “hERG current change (%, negative = inhibition) at 1uM” value rises from -25% to 13.6%.

Going from `COC(=O)c1cc(C(=O)OCC(=O)NC2CCCC2)cc([N+](=O)[O-])c1` to `CCOC(=O)c1ccccc1NC(=O)COC(=O)C1CC(=O)N(CCc2ccccc2)C1` (centres unmarked), the “hERG current change (%, negative = inhibition) at 1uM” value falls from 9.87% to 1.85%.

Going from `S=C(Nc1ccccc1)NC1CCN(Cc2ccccc2)CC1` to `CC(C)(C)C(=O)CC1(O)C(=O)N(Cc2ccccc2)c2ccccc21` (centres unmarked), the “hERG current change (%, negative = inhibition) at 1uM” value rises from -8.9% to 8.55%.

First: CC1CCN(CCCNC(=O)C2CCC(CNS(=O)(=O)c3ccccc3)CC2)CC1 (centres unmarked)
Second: COc1ccc(OC)c(NC(=O)CCN2CCCC(C)C2)c1.Cl (centres unmarked)
The “hERG current change (%, negative = inhibition) at 1uM” value of the first is higher: 16.3% for the first, 3.46% for the second.

First: Brc1ccc(/C=N/N2CCN(C3c4ccccc4-c4ccccc43)CC2)s1
Second: O=C(O)CCc1ccc(-c2ccccc2)n1-c1cccc(O)c1
The “hERG current change (%, negative = inhibition) at 1uM” value of the first is higher: 11.3% for the first, -0.825% for the second.

First: CCOP(=O)(OCC)C(Nc1ccc(F)cc1)c1ccccc1 (centres unmarked)
Second: O=C(COc1ccccc1)Nc1ccccc1NS(=O)(=O)c1cccs1
The “hERG current change (%, negative = inhibition) at 1uM” value of the first is higher: 9.43% for the first, 1.15% for the second.

Compared with `Cc1cc(C)cc(N(CC(=O)NC(C)(C)C)C(=O)CNC(=O)c2cccs2)c1`, `COc1ccccc1CCNC(=O)C(C)n1nc(C)c2c(C)n(-c3ccccc3)nc2c1=O` (centres unmarked) is lower in “hERG current change (%, negative = inhibition) at 1uM” value: 11.2% for the first, -7.56% for the second.

First: Cn1c(N2CCCC2)nc2c1c(=O)n(Cc1ccc(F)cc1)c(=O)n2C
Second: Cn1c(=O)c(=O)n(C)c2cc(S(=O)(=O)CCC(=O)N3CCOCC3)ccc21
The “hERG current change (%, negative = inhibition) at 1uM” value of the first is higher: 9.89% for the first, 7.72% for the second.

Compared with `O=C(O)CN1C(=O)c2cccc3c(Br)ccc1c23`, `CCSc1nc2sc3c(c2c(=O)n1-c1ccccc1)CCN(C(C)C)C3` is lower in “hERG current change (%, negative = inhibition) at 1uM” value: 15.9% for the first, 11.9% for the second.

First: CCO.CN1CC=C2C(C#N)=C(N)C(C#N)(C#N)[C@H](c3ccoc3)[C@H]2C1
Second: CN1CCN(CCC(=O)N/N=C/c2cc([N+](=O)[O-])ccc2OC(F)F)CC1
The “hERG current change (%, negative = inhibition) at 1uM” value of the first is lower: 6.1% for the first, 12.7% for the second.

First: O=C(CSc1nc2sc3c(c2c(=O)[nH]1)CCCC3)NCCO
Second: O=C(NCCCn1ccnc1)c1cc(-c2ccncc2)nc2ccccc12
The “hERG current change (%, negative = inhibition) at 1uM” value of the first is higher: 9.66% for the first, -27.7% for the second.
